# Reference: the supplement of paper PMC7826260
# Some of the results follow. Viral Rep nickase domains cut single-stranded DNA in vitro (1 h at 37 °C, 3 µM enzyme); the outer parts of the 90-letter strands are left off. The score is log2 (uncut reads / reads without enzyme); uncut sequences lie near 0, cut ones below; no hit call is given. Reads are scaled to the total; values above 0 arise when much of the pool is cut.
# How the values were obtained:
# Assay in all cases: uncleaved DNA left, log2 of reads against the no-enzyme library (log2 ratio); higher = less cleavage (more negative = more Rep cleavage of the k-mer); sequences stand for … in CTCGTCCG…ACCGGAGA
# [1] = system: T1, Rep nickase domain of Muscovy duck circovirus
# T1 sequence (Rep 1-111, printed without the tag): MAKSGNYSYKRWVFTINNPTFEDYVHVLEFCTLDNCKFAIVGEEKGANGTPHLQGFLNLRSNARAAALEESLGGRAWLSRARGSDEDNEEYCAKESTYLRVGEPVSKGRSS
# Protocol: (§1)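 A pool of 90-nt single-stranded DNAs with seven random bases just before the constant AC of the nick site (name = the seven bases) was cut by 3 µM recombinant His6-SUMO-tagged Rep nickase domain (300 nM DNA, 50 mM HEPES pH 8.0, 50 mM NaCl, 1 mM MnCl2, 1 h, 37 °C, three replicates). Uncut DNA was amplified and sequenced.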
# [2] = system: T2, Rep nickase domain of banana bunchy top virus
# T2 sequence (Rep 1-94, printed without the tag): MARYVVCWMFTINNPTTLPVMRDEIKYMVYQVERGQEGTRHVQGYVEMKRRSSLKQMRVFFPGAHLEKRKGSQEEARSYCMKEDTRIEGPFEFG
# Protocol: as §1
# [3] = system: T3, Rep nickase domain of cabbage leaf curl virus
# T3 sequence (Rep 1-116, printed without the tag): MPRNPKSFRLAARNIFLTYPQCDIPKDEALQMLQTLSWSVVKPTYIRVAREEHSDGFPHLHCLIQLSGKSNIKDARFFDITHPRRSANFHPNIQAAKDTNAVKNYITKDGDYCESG
# Protocol: as §1
# [4] = system: T4, Rep nickase domain of chickpea chlorotic dwarf virus
# T4 sequence (Rep 1-124, printed without the tag): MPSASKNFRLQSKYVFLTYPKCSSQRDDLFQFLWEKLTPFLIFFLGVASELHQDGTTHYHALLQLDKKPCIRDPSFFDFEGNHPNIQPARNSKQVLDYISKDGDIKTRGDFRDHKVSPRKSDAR
# Protocol: as §1
# [5] = system: T5, Rep nickase domain of faba bean necrotic yellows virus
# T5 sequence (Rep 1-98, printed without the tag): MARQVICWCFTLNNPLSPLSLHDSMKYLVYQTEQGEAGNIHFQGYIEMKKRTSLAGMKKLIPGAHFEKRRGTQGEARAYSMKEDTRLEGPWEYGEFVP
# Protocol: as §1
# [6] = system: T6, Rep nickase domain of maize striate mosaic virus
# T6 sequence (Rep 1-117, printed without the tag): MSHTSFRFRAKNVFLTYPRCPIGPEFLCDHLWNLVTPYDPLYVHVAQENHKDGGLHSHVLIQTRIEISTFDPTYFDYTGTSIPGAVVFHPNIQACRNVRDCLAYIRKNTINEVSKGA
# Protocol: as §1
# [7] = system: T7, Rep nickase domain of porcine circovirus 2
# T7 sequence (Rep 2-116, printed without the tag): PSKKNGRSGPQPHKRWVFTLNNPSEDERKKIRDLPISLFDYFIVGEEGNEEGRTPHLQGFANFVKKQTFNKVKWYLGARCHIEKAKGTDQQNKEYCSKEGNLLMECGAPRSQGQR
# Protocol: as §1
# [8] = system: T8, Rep nickase domain of tomato yellow leaf curl virus
# T8 sequence (Rep 1-136, printed without the tag): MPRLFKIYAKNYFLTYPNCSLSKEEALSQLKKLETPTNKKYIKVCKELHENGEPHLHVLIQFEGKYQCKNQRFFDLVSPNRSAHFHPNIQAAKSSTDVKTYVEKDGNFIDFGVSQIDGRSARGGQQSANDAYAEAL
# Protocol: as §1
# [9] = system: T9, Rep nickase domain of wheat dwarf virus
# T9 sequence (Rep 1-137, printed without the tag): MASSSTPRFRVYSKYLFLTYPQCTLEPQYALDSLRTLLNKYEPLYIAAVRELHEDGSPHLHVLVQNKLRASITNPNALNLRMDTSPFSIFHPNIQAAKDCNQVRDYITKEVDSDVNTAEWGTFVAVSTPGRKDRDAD
# Protocol: as §1
Sequence,uncleaved DNA left (log2) [1],uncleaved DNA left (log2) [2],uncleaved DNA left (log2) [3],uncleaved DNA left (log2) [4],uncleaved DNA left (log2) [5],uncleaved DNA left (log2) [6],uncleaved DNA left (log2) [7],uncleaved DNA left (log2) [8],uncleaved DNA left (log2) [9]
GAGAGTA,0.214,0.0562,0.436,0.237,0.0269,1.1,-1.1,0.17,0.181
CCTTAAG,0.104,0.179,-0.704,0.0231,0.129,-0.83,0.325,0.111,-0.102
GTCTCAA,0.186,0.246,0.46,0.955,0.214,1.87,0.15,0.124,0.151
GGCTGTG,0.0748,0.0396,-0.0135,-0.0116,-0.00276,-0.272,0.0533,0.0468,-0.0646
TGACGGA,-0.043,-0.154,0.0379,0.325,-0.111,0.332,-0.00609,-0.189,-0.00141
GCCTCTC,-0.00973,-0.198,0.0524,0.166,-0.087,0.163,-0.0628,-0.108,-0.103
TCTTCCC,-0.0814,-0.0964,-0.00725,-0.387,-0.243,-0.502,-0.238,-0.0862,-0.0316
GGCGATA,0.14,0.0193,0.262,1.04,-0.0996,1.64,-0.0664,0.0471,-0.0144
ATGCAAC,-0.0609,-0.0781,-0.0576,-1.16,-0.0254,-0.805,-0.0587,-0.0559,-0.08
CAAAATT,-0.0239,-0.602,-3.61,-3.25,0.202,-2.28,-3.43,0.008,-3.46
AAGAAAA,-0.037,0.109,0.0363,0.124,0.000545,-0.175,-0.331,-0.0156,0.0702
CCTAGAG,0.13,0.144,-0.621,-0.469,0.114,-1.04,0.22,0.121,-0.00718
CCTCTAG,0.194,0.163,-0.596,-0.515,0.0855,-0.997,0.231,0.0961,-0.127
AGAATTC,0.0152,0.014,0.153,0.262,0.0309,-0.595,-0.0132,-0.0402,-0.0179
CCAGACG,-0.0036,0.0252,-0.837,-0.633,0.035,-0.981,0.205,-0.0507,0.101
TACCGGT,0.061,-0.034,0.265,-0.00328,-0.0367,0.741,-0.164,-0.0294,-0.0377
GGGGCTA,0.0199,0.158,0.92,2.05,-0.0291,2.35,0.269,0.0548,0.247
GCTCGGA,-0.0117,0.0109,0.173,0.508,0.0386,0.254,0.276,-0.0508,0.0318
TCACGTG,0.0109,-0.0261,-0.607,-0.691,-0.0589,-0.992,0.21,-0.0765,-0.0638
GATCGTA,-0.0354,-0.159,0.00511,0.0116,-0.168,0.3,-0.0957,-0.11,-0.0748

Sequence,uncleaved DNA left (log2) [1],uncleaved DNA left (log2) [2],uncleaved DNA left (log2) [3],uncleaved DNA left (log2) [4],uncleaved DNA left (log2) [5],uncleaved DNA left (log2) [6],uncleaved DNA left (log2) [7],uncleaved DNA left (log2) [8],uncleaved DNA left (log2) [9]
TCGTGGG,-0.0297,-0.0447,-0.219,-0.196,0.153,-0.762,0.293,0.023,0.0111
ACTGGCA,0.165,0.183,-0.13,0.187,0.182,-0.211,0.149,0.166,0.202
CGATATT,-2.98,-0.867,-1.12,-2.35,0.0382,-0.302,-3.38,0.071,-1.44
GTTTAAT,-0.269,0.00937,0.285,0.734,-0.127,1.65,-0.724,-0.0397,-0.0888
TACAAGA,-0.0322,-0.00209,-0.0854,-0.752,0.0427,-0.892,0.00769,-0.00556,0.0182
CGTGTGA,-0.117,-0.141,-0.388,-0.237,-0.0804,-0.809,-0.122,-0.0553,-0.192
CACGCAA,-0.0222,-0.044,-0.123,-0.622,0.00321,-0.713,0.00614,-0.0613,0.116
GCCCAAG,-0.0166,0.103,-0.367,-0.215,0.0137,-0.768,0.335,0.0664,-0.0465
GATTTGA,0.0933,0.122,0.362,0.598,0.0208,0.294,0.0912,0.192,0.128
GGCGCGA,0.227,0.137,0.0729,0.3,0.156,0.158,0.234,0.0966,-0.0114
ACGCTTA,-0.165,-0.196,-0.269,-1.14,-0.0613,-0.572,-0.0478,-0.0969,0.0277
GATCTCA,0.0384,0.145,0.241,0.141,-0.00887,1.06,0.128,0.237,0.122
TGTCTGG,0.0538,-0.0351,0.296,0.526,0.0393,0.668,0.0222,-0.0648,0.0447
TAAGTTA,0.0476,0.00949,-1.14,-2.42,0.0478,-0.342,-0.00425,0.00528,-0.829
GGAGGCT,0.101,0.0466,0.871,1.56,0.0981,2.08,0.224,0.0975,0.101
AAAGGAC,0.026,0.0714,0.274,1.31,-0.0353,1.24,0.185,-0.0191,0.116
TCCCTAT,0.086,-0.198,0.113,-0.783,-0.106,-0.353,-0.148,-0.208,0.11
CACAAGT,0.0622,-0.0181,-0.0441,-1.05,-0.111,-0.916,-0.64,0.0281,-0.0158
TCGGCGC,0.0764,-0.0165,-0.656,-0.352,0.144,-0.89,0.0655,-0.0538,-0.107
ACGTTCA,0.0484,-0.0421,-0.153,-1.19,0.00362,-0.497,-0.0518,0.00367,0.0158

Sequence,uncleaved DNA left (log2) [1],uncleaved DNA left (log2) [2],uncleaved DNA left (log2) [3],uncleaved DNA left (log2) [4],uncleaved DNA left (log2) [5],uncleaved DNA left (log2) [6],uncleaved DNA left (log2) [7],uncleaved DNA left (log2) [8],uncleaved DNA left (log2) [9]
CTATTAA,0.101,0.109,-0.055,-0.46,0.0364,-0.638,-0.0124,0.0173,0.121
TAGCAGT,-0.0914,0.048,-0.207,-1.2,-0.000147,-0.841,-3.1,0.12,-0.0215
TCCGAGG,0.0778,0.038,0.578,1.32,0.0175,1.72,0.179,-0.0919,-0.0173
CATGAAG,0.0904,-0.1,-0.648,0.582,0.0508,-0.275,0.178,0.0458,-0.0998
GGTAAAT,0.0726,0.098,0.813,1.91,-0.0203,2.12,0.246,0.163,0.181
TGATACG,0.0243,-0.0411,-0.927,-0.78,-0.000919,-1.2,-0.105,-0.149,-0.187
CAACGGC,-0.0586,-0.0592,-0.263,-0.624,-0.116,-0.922,-0.0628,-0.0431,-0.152
CCTGACA,-0.0293,-0.119,0.00519,-0.162,0.105,0.311,-0.079,-0.228,0.0677
AAGGGCA,0.0771,0.0178,0.173,0.437,0.0974,0.27,-0.0182,-0.0151,0.0919
ACAGAGC,0.125,0.0451,-0.423,-0.513,0.0548,-1.07,0.244,0.268,0.00203
TGCTAAC,0.0629,0.0424,0.235,0.219,0.0562,1.18,0.207,0.155,0.131
CAGCATG,-0.00706,-0.019,-0.0617,0.273,-0.0644,-0.0386,-0.00496,-0.124,-0.111
TCGCCGC,0.0398,-0.0178,-0.36,-0.469,-0.0569,-0.605,0.012,0.00485,-0.165
CAAGCGG,0.0212,0.0582,0.362,1.34,-0.0244,1.42,0.0845,-0.154,0.0387
CCATGGC,-0.0932,-0.178,-0.825,-0.7,-0.17,-1.12,0.0252,0.0782,-0.22
TGGCGCC,-0.0628,-0.0324,-0.152,-0.303,0.0844,-0.488,-0.0523,-0.1,-0.0612
CATCCAT,-0.0669,-0.0507,-0.175,-1.55,-0.132,-0.645,-0.112,0.0221,0.125
CGCCGAG,0.162,0.162,0.825,1.35,0.0785,0.94,0.0731,0.157,0.269
ACCGACC,-0.134,-0.164,-0.278,0.119,-0.1,-0.853,0.0643,-0.114,-0.163
CCTCAGC,0.097,0.138,-0.106,-0.423,-0.0459,-0.61,0.266,0.177,0.0954
